# Laboratory results taken from US11684676B2, “Site-specific antibody-drug conjugates by ADP-ribosyl cyclases” (University of Southern California, priority 2020, dated 2023).
# B1: DAR2-ARC-IgG: anti-hCLL-1 antibody 1075.7 with CD38 fused to C-termini of heavy chains (antibody)
# heavy: DIQLQESGPGLVKPSQSLSLTCSVTGYSITSAYYWNWIRQFPGNKLEWMGYISYDGRNNYNPSLKNRISITRDTSKNQFFLKLNSVTTEDTATYYCAKEGDYDVGNYYAMDYWGQGTSVTVSS[about 600 residues with a human IgG1 Fc skipped]
# light: ENVLTQSPAIMSASPGEKVTMTCRASSNVISSYVHWYQQRSGASPKLWIYSTSNLASGVPARFSGSGSGTSYSLTISSVEAEDAATYYCQQYSGYPLTFGAGTKLELKRAAAAPSVFIFPPSDEQLKSGTASVVCLLNNFYPREAKVQWKVDNALQSGNSQESVTEQDSKDSTYSLSSTLTLSKADYEKHKVYACEVTHQGLSSPVTKSFNRGEC
# B2: anti-hCLL-1 antibody: native anti-hCLL-1 monoclonal antibody 1075.7 (SEQ ID NO: 6 and SEQ ID NO: 8) (protein)
# light: B1 light
# heavy: DIQLQESGPGLVKPSQSLSLTCSVTGYSITSAYYWNWIRQFPGNKLEWMGYISYDGRNNYNPSLKNRISITRDTSKNQFFLKLNSVTTEDTATYYCAKEGDYDVGNYYAMDYWGQGTSVTVSS[about 350 residues with a human IgG1 Fc skipped]
# Assay: ADP-ribosyl cyclase activities of anti-hCLL-1-CD38 fusions
# Format: biochemical
# Details: versus recombinant human CD38 extracellular domain; NGD+ 100 μM
# Procedure: ADP-Ribosyl Cyclase Activities.
# The rate of cyclic guanine dinucleotide phosphate-ribose (cGDPR) generation was monitored by a Synergy H1 plate reader (BioTek, VT, USA) for its signature fluorescence (excitation at 300 nm; emission at 410 nm) for 5 minutes.
molecule,measurement,value
B1,catalytic activity,significantly higher catalytic activities
B2,catalytic activity,no enzymatic activity
